Laboratory results: patent publication US6555692B1, “Preparation and use of bifunctional molecules having DNA sequence binding specificity” (California Institute of Technology, priority 1996, dated 2003)

Experiments:
5′-TGAAT-3′ = experiment: Quantitative DNase I footprint titration; type: binding; details: weakest 5′-TG(A,T)3-3′ site; pH 7.0, 22° C.
Experimental: (§1) It has been shown that the Py/Py pair is approximately degenerate for recognition of A,T base pairs, affording generality with regard to targeting sequences of mixed A●T/T●A composition. (White, et al. Biochemistry 35, 12532-12537 (1996)). To test the extent of this degeneracy, the affinity of the hairpin polyamide ImPyPy-γ-PyPyPy-β-Dp was measured for eight possible five base pair 5′-TG(A,T)3-3′ match sites.

5′-TGTTT-3′ = experiment: Quantitative DNase I footprint titration; type: binding
Experimental: as §1

equilibrium association constant Ka (5′-TGAAT-3′): 1.8e+07 M⁻¹ | difference in the equilibrium association constants between strongest and weakest site (5′-TGTTT-3′; eight 5′-TG(A,T)3-3′ sites, 5′-TGTTT-3′ vs 5′-TGAAT-3′): 12 fold | equilibrium association constant Ka (5′-TGTTT-3′; strongest 5′-TG(A,T)3-3′ site, pH 7.0, 22° C.): 2.1e+08 M⁻¹
Compound: CN(C)CCCNC(=O)CCNC(=O)c1cc(NC(=O)c2cc(NC(=O)c3cc(NC(=O)CCCNC(=O)c4cc(NC(=O)c5cc(NC(=O)c6nccn6C)cn5C)cn4C)cn3C)cn2C)cn1C [ImPyPy-γ-PyPyPy-β-Dp]
